Consider 115 sequences from the BET-seq Pho4 binding data (Le et al. 2018).

The other results are listed elsewhere or left out. The energies were worked out here from pooled read counts, against the library average; single values are noisy.

In the test the target is T1, Pho4 (S. cerevisiae) (UniProt P07270).
T1 sequence: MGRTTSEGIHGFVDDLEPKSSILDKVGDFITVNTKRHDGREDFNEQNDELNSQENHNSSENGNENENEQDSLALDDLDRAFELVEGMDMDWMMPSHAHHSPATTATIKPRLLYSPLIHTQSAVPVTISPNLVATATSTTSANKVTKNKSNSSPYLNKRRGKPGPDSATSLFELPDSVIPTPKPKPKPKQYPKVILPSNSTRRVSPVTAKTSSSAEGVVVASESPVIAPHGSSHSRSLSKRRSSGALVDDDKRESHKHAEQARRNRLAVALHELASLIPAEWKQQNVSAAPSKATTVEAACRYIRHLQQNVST
In words: relative binding free energy (BET-seq); higher = weaker binding. The settings on record: reference: library average.
Turning to TGGTCCACGTGGTTTA, the “relative binding free energy” value was found to be 0 kcal/mol. To TAGTGCACGTGACGTT belongs 0.06 kcal/mol; to TGTCGCACGTGAATGG, 0.18 kcal/mol; to TAAGGCACGTGATCGG, -0.1 kcal/mol.

Consider GTCTGCACGTGGTGGG, for which the “relative binding free energy” value was 0.07 kcal/mol.

Consider TGTATCACGTGAATCT, for which the “relative binding free energy” value was determined as 0.36 kcal/mol. Turning to GTCAACACGTGAGTTG, the “relative binding free energy” value worked out at 0.31 kcal/mol. Regarding TTCGGCACGTGTAATG, the “relative binding free energy” value came to 0.13 kcal/mol. Turning to CGTGACACGTGTGGTG, the “relative binding free energy” value stood at 0.1 kcal/mol.

AGTTTCACGTGAGCAT: the “relative binding free energy” value is 0.27 kcal/mol. On to AGTAACACGTGATGGA, for which the “relative binding free energy” value was found to be 0.11 kcal/mol. The result for TCGTGCACGTGAGGGC reads 0.12 kcal/mol; that for GATTACACGTGATGGG, 0.25 kcal/mol. The result for GCGTTCACGTGTTTAA reads 0.33 kcal/mol; that for AGATCCACGTGGTGTA, 0.04 kcal/mol; that for GTCTTCACGTGGGTCT, 0.2 kcal/mol. To TGAATCACGTGTGGAG belongs 0.21 kcal/mol; to GGGATCACGTGTCGAG, 0.26 kcal/mol; to TTTCTCACGTGAGGGC, 0.46 kcal/mol. Regarding TGAACCACGTGAGGGG, the “relative binding free energy” value amounted to 0.09 kcal/mol. The result for TGACGCACGTGGTTTA reads -0.17 kcal/mol.

Turning to GATGGCACGTGTAATG, the “relative binding free energy” value worked out at 0.09 kcal/mol. To TCGTACACGTGTGGAG belongs 0.09 kcal/mol; to ATGGTCACGTGGAGTC, 0.01 kcal/mol; to GGTTGCACGTGTGCTG, 0.13 kcal/mol. To CAGTTCACGTGGTGGA belongs 0.29 kcal/mol; to TTTTCCACGTGGTCGT, 0.03 kcal/mol; to TGTGACACGTGGATCT, 0.01 kcal/mol. TAGTACACGTGATGTT: the “relative binding free energy” value is 0.25 kcal/mol. The result for TCTGGCACGTGGGCTT reads -0.11 kcal/mol; that for ATTTTCACGTGAATTA, 0.47 kcal/mol; that for AAGTCCACGTGGGGGT, -0.25 kcal/mol. The result for ATGGGCACGTGGTAAT reads -0.12 kcal/mol; that for CATGTCACGTGTGTAT, 0.2 kcal/mol. To TGGGTCACGTGAGACA belongs 0.25 kcal/mol; to TATGACACGTGTCTAG, 0.1 kcal/mol; to TTATTCACGTGCGGCT, 0.22 kcal/mol.

As for AATCGCACGTGGGGAT, the “relative binding free energy” value is -0.06 kcal/mol. The result for AGGTTCACGTGCGTAA reads 0.1 kcal/mol. In the case of AAAAACACGTGGGGGA, the “relative binding free energy” value was -0.16 kcal/mol. The result for GGGTGCACGTGAAGAT reads 0.31 kcal/mol. To TTTGTCACGTGGCGAG belongs -0.01 kcal/mol; to ATGAGCACGTGCGTAG, -0.18 kcal/mol. On to TAGGACACGTGTGCGG, for which the “relative binding free energy” value is -0.02 kcal/mol. GTCGGCACGTGGCTGG: the “relative binding free energy” value is -0.06 kcal/mol. With GTGGTCACGTGGCTAA, the “relative binding free energy” value amounted to 0.13 kcal/mol.

Take TAATTCACGTGTGTGG: the “relative binding free energy” value was 0.25 kcal/mol.

As for GGGGACACGTGTAGAA, the “relative binding free energy” value came out at 0.1 kcal/mol. The result for GTATACACGTGAGGGC reads 0.24 kcal/mol. With ATATGCACGTGGGCAT, the “relative binding free energy” value is -0.24 kcal/mol.

Regarding ACTTGCACGTGGGTGT, the “relative binding free energy” value was -0.04 kcal/mol. The result for GGGATCACGTGTGTGT reads 0.22 kcal/mol; that for TTTGGCACGTGAGCGC, 0.04 kcal/mol; that for GTTTCCACGTGTTCAG, 0.22 kcal/mol. To CTGTGCACGTGTTGTC belongs -0.1 kcal/mol. Consider CTAGTCACGTGGGGAG, for which the “relative binding free energy” value was determined as 0.02 kcal/mol. The result for TCTGGCACGTGAGTGC reads 0.14 kcal/mol; that for GGGGGCACGTGCGGTT, -0.09 kcal/mol.

Consider GGCCACACGTGGGGTG, for which the “relative binding free energy” value worked out at 0.02 kcal/mol. For TTCGTCACGTGGGGTA, the “relative binding free energy” value was -0.08 kcal/mol. For the sequence TGGTGCACGTGTGCGA, the “relative binding free energy” value was -0.07 kcal/mol. The result for GGTTTCACGTGTAATA reads 0.29 kcal/mol; that for GGCTACACGTGGGTTA, 0.04 kcal/mol; that for ATTATCACGTGCCGGT, 0.15 kcal/mol. With GGCTACACGTGTCGGG, the “relative binding free energy” value is 0.19 kcal/mol. In the case of CGAGGCACGTGGAATG, the “relative binding free energy” value is -0.11 kcal/mol. To CATGACACGTGGGAGT belongs -0.06 kcal/mol; to AGAATCACGTGGGTAG, 0 kcal/mol. For CTGGGCACGTGCGGAT, the “relative binding free energy” value is -0.14 kcal/mol. Consider GATGACACGTGGCGGG, for which the “relative binding free energy” value was 0.08 kcal/mol. To GATGTCACGTGAGCTG belongs 0.41 kcal/mol; to TAGGCCACGTGGTTAT, -0.22 kcal/mol. With AGTGTCACGTGTTAAC, the “relative binding free energy” value was determined as 0.05 kcal/mol. Consider GTGGCCACGTGATATT, for which the “relative binding free energy” value was 0.15 kcal/mol. Take ATCTTCACGTGTAGTA: the “relative binding free energy” value was 0.17 kcal/mol.

For GTTATCACGTGTTCGG, the “relative binding free energy” value was 0.24 kcal/mol.

In the case of TGGAACACGTGATCGG, the “relative binding free energy” value came out at 0.2 kcal/mol. GAGTGCACGTGGGTTA: the “relative binding free energy” value was -0.12 kcal/mol.

For the sequence GGTTGCACGTGTATGA, the “relative binding free energy” value was determined as 0.15 kcal/mol. The result for TGGGGCACGTGTAGCA reads -0.06 kcal/mol. As to GGCATCACGTGGGGGC, the “relative binding free energy” value is 0.18 kcal/mol. The result for TTTTACACGTGAGGTT reads 0.36 kcal/mol; that for GTTGTCACGTGATTCA, 0.24 kcal/mol; that for TTTCACACGTGTCGGT, 0.04 kcal/mol. To GGGGGCACGTGCACGG belongs -0.21 kcal/mol.

As to TGATTCACGTGGTAGT, the “relative binding free energy” value came out at 0.23 kcal/mol. The result for GGGTGCACGTGGATAG reads 0.07 kcal/mol; that for TTGTACACGTGGCGGC, 0.03 kcal/mol; that for AATGGCACGTGGGAGC, -0.22 kcal/mol. The result for ATGGACACGTGCGTTG reads -0.03 kcal/mol. Regarding GGGGCCACGTGAGTCT, the “relative binding free energy” value amounted to 0.34 kcal/mol. The result for AGGAGCACGTGTGGTG reads -0.08 kcal/mol. To CAATTCACGTGGGGAT belongs 0.18 kcal/mol; to GAAATCACGTGGGTCG, 0.16 kcal/mol; to TATTTCACGTGCGCTG, 0.24 kcal/mol. To TGTCTCACGTGCTTGG belongs 0.16 kcal/mol; to TGTTTCACGTGTGGTC, 0.35 kcal/mol; to GGAGTCACGTGTGAGA, 0.28 kcal/mol. As to TTGGTCACGTGGGTGT, the “relative binding free energy” value turned out to be 0.04 kcal/mol.

Turning to TTTTACACGTGCGTAT, the “relative binding free energy” value was -0.04 kcal/mol.

For the sequence TATATCACGTGTTAGC, the “relative binding free energy” value came to 0.35 kcal/mol. Regarding TAGTGCACGTGTTAGT, the “relative binding free energy” value is 0.11 kcal/mol. For GTATGCACGTGGATAG, the “relative binding free energy” value is -0.16 kcal/mol. For the sequence TAGTGCACGTGAATAG, the “relative binding free energy” value amounted to 0.1 kcal/mol. AGTGGCACGTGGCGGC: the “relative binding free energy” value was -0.15 kcal/mol. To CACTTCACGTGGTGAG belongs 0.3 kcal/mol; to AAGCCCACGTGGGGTG, -0.21 kcal/mol; to GATATCACGTGGAGGG, 0.1 kcal/mol. For the sequence GGTAGCACGTGGGGCT, the “relative binding free energy” value is -0.28 kcal/mol. As to ACTTTCACGTGTAGTG, the “relative binding free energy” value is 0.18 kcal/mol. Consider TGAAGCACGTGATTTA, for which the “relative binding free energy” value worked out at 0.09 kcal/mol. To GGGGTCACGTGCTGAA belongs 0.11 kcal/mol.

As for GCTAGCACGTGGGTGA, the “relative binding free energy” value was -0.14 kcal/mol.

With TTAGGCACGTGTCGGG, the “relative binding free energy” value is -0.11 kcal/mol. For the sequence GACGGCACGTGTATGT, the “relative binding free energy” value stood at 0.08 kcal/mol.
